# Test results taken from the RNAGym collection of RNA variant scans (doi:10.7554/elife.90254).
# Read counts are not given, so values of variants with three or more changes are uncertain.
# B1: LINE1-mini (parent)
# chain: GGCAGAGCUCAACACAGCGUGGCAAAGUGGCUGUGGCUAGACUGCC
# Variants of: B1
# Assay: self-cleavage, relative activity (ratio to wild type); higher = more cleavage; in vitro, sequencing; the parent is a self-cleaving ribozyme
row,Variant,self-cleavage
1,C8A C18U C23A A24U G30A,0.09
2,C8A C13U C18A U28G,0.42
3,C8A U9G G22C A24U G36U,0.02
4,C8A G17C A26G,0.19
5,C8G A11U C18A G22U G27A G35A,0.01
6,C8A C37A A41U,0.02
7,C8A C23G C42G,0.51
8,C8A G19U G22A G35U A39C,0.02
9,C8A C10U A11C C18U A26G,0.01
10,C8A G29U U43A G44A,0.3
11,C8A C10A G30U C37U U38G C46G,0.02
12,C8A C15A U34A G40C,0.15
13,C8G A11U A39C,0.01
14,C8A C13A G17U A25G G29U G33A,0.15
15,C8A U20C G36U,0.35
16,C8A G27C U34A,0.15
17,C8A G21A G22A U38C,0.12
18,C8A C10U C13U C42U,0.08
19,C8A U9G A12C G30C G36U,0.01
20,C8A A26U U38A C45G C46A,0.68
21,C8A G21C U32C,0.82
22,C8G A11G A24U G30A A39G,0.01
23,C8A C15A G21A G36C,0.06
24,C8A C10U U38A,0.05

row,Variant,self-cleavage
1,C8A C15G G17C G27A A39U C46A,0.13
2,C8A C10G G19U,0.08
3,C8A C13U U20A G29U C31U,0.2
4,C8A G21U G35U,0.79
5,C8A G19C C37G,0.03
6,C8A G21C C45A,0.66
7,C8A C13U G35A C37A,1.51
8,C8A C10A A26G C42U,0.02
9,C8A C13U A16U G30C,0.09
10,C8A C10G A14C C15G G30C U32A,0
11,C8A C13A C15U C31A,0.41
12,C8A G29A C37U,0.08
13,C8A G22C G33A U34C C37U C45A,0.2
14,C8A C15G G19U A26U,0.33
15,C8A G33A C37A G40A G44A,0.12
16,C8A C13A U20A A24U A26U,0.22
17,C8A G29C A41C G44A,0.04
18,C8A C13A G22A G35C,0.23
19,C8A C10G G19U G27C G33U A41U U43A,0.01
20,C8A C10G A11U U32C C37A,0.01
21,C8A C10A U28G G30U,0.02
22,C8A G29A G33A U38A G40U,0.12
23,C8A G17C G27C G35C,0.12
24,C8A U34G U38G,0.02

row,Variant,self-cleavage
1,C8A C18U A25U U32A C37G,0.17
2,C8A G35C G36A A39G,0.11
3,C8A G35U C45U,0.63
4,C8A C15G C18G,0.02
5,C8A G17U G27U G33U,0.16
6,C8G A12G A24U A26G G30U,0.08
7,C8A C13A C15A A16G G19U A25U A41U,0.1
8,C8A U32C G40A,0.06
9,C8A C18G G21C C31U C42G,0.07
10,C8A G21U C23G U32G G35A,0.07
11,C8A C10G G19C G29U,0.01
12,C8A U9G A39U A41G C45U,0
13,C8A C37A A39C A41C,0.03
14,C8A U9C C23A C45G,0.03
15,C8A G22U G36A,0.55
16,C8A U9C A12U U20G U32A,0.01
17,C8A U9G C15A U20G C31U C37U U43G C46U,0.02
18,C8A U28A G44U,0.59
19,C8A C15A G19U A41C,0.09
20,C8A G29U A39U,0.1
21,C8G A12C U20A C23U G33U,0.01
22,C8A G19A G21A G27U C42G,1.09
23,C8A C23U C46A,1.28
24,C8A U9A G17U,0.24

row,Variant,self-cleavage
1,C8A G44C C46U,0.1
2,C8A C18G C31G C46A,0.12
3,C8A G19U A41U,0.22
4,C8A U20A U38G,0.05
5,C8A G19C C23U,0.09
6,C8A U28A U32C,0.23
7,C8A G17C G36U A41G C42G,0.12
8,C8A G22U G29A,0.19
9,C8A C18A U38C,0.02
10,C8A G17C G19A A25G G33C,0.17
11,C8A U20C C46U,0.26
12,C8A U34G A39C,0.06
13,C8A U9A A12U G29U A39G U43C,0.09
14,C8A G17C G19A,0.71
15,C8A G19U G27U,0.24
16,C8A C18U G22A G40C C46A,0.16
17,C8A C10A C18U G22A C37G G40A,0.01
18,C8A U43G G44A,0.3
19,C8A G17U G29U,0.24
20,C8A U20G C31G A39C,0.02
21,C8A C13U A25C,0.15
22,C8A G21C C23U A26C U32A G33A U34G,0.04
23,C8G A12G C13G G35C A41C,0.02
24,C8A C23A G33U A39C,0.15

row,Variant,self-cleavage
1,C8A U20A C31U U32A,0.1
2,C8A U20A A25G C37G,0.03
3,C8A C42U C45G C46U,0.15
4,C8A C13U U28C,0.64
5,C8A C15U C23A C42G G44U,0.04
6,C8A G17C A41G,0.06
7,C8A G27U C45A,0.46
8,C8A U28C U34C G40U C42G,0.02
9,C8A G19C U20A A26G G30C C31U U32C,0.03
10,C8A C10A A16C C18G G29U,0.03
11,C8A G29C C37G G44A,0.08
12,C8A C37G G40U A41U,0.01
13,C8A C15A G40U,0.08
14,C8A C13A U32C,0.5
15,C8A G30A G40A C46U,0.11
16,C8A G22A U34C G44C,0.03
17,C8A G17U C31G U32A U43C C45A,0.14
18,C8A G17U G30A A39U U43A C45A,0.42
19,C8G A11U C31A U34A,0.01
20,C8A C15U G36A,0.48
21,C8A C31A C37U,0.05
22,C8A G22U A26G G29A G36A C46G,0.49
23,C8A G17A G21U C23G U38C,0.04
24,C8A C15G U28G G30U,0.13

row,Variant,self-cleavage
1,C8A U20G G29U,0.07
2,C8G A12C U32A G35U,0.02
3,C8A C10U A41U,0.04
4,C8A U20G G21C A26G G27U G30A,0.02
5,C8A C10G C13A A24U G27U G36A C46A,0.01
6,C8A U9A G22C C31A C42U,0.34
7,C8A G21U U43A,0.05
8,C8A C15A A16U G35C A41U,0.11
9,C8A C18U G29C,0.15
10,C8A G44U C45U,0.28
11,C8A C10U A14C G35A,0.02
12,C8A G19U U32G G40A,0.03
13,C8A G30U G35C,0.03
14,C8A G22U G30U C42A,0.19
15,C8A G22U G29U U38C,0.36
16,C8A C13U A26U,2.13
17,C8A C37A A39U,0.02
18,C8A G36U C45G,0.15
19,C8A G19A C23G U43C,0.06
20,C8A C13A A26G A41U,0.12
21,C8A C10A U28A G29U,0.01
22,C8A U9C A11C C18G C37G,0.01
23,C8A G29A G30U U32C G35A,0.1
24,C8A C10G U38G,0.01

row,Variant,self-cleavage
1,C8A U28C G33A G36A,0.04
2,C8A C13U C45A,0.57
3,C8A C10A A11U U34A,0.03
4,C8A C18A G22A A26U U32A,0.08
5,C8A C31G G35U,0.01
6,C8A U28G G40A,0.14
7,C8A U28G C37A,0.01
8,C8A G21U C23U A24G G33A G35C C37A A39U C46A,0.02
9,C8A G17A G35A G36U,0.03
10,C8A A25U G35U G36U C46U,0.16
11,C8A C10G G40A,0.01
12,C8A G35C G36U,0.14
13,C8A G17U U38C,0.19
14,C8A G33A G36U U43C G44A C46U,0.14
15,C8G A12C G35C,0.04
16,C8A G21A G29C G30U,0.08
17,C8A G29U U43A,0.02
18,C8A G27U U28A G35U C46U,0.16
19,C8A C23U G27U U34C,0.53
20,C8A G22A A26U C46A,0.14
21,C8A G35U U43A,0.07
22,C8A G44A C45A,0.11
23,C8A G44A C45U,0.29
